{"source": "PubChem BioAssay AID1963576", "about": "(National Center for Advancing Translational Sciences (NCATS), 2024)", "note": "The campaign covered roughly 46,000 compounds. About 60 (0.1%) were called active. About 3% were inconclusive and are not listed. The call rests on the fitted dose curve; in most records, active means well fitted inhibition curve with a large enough effect; inconclusive means small, poorly fitted or top-dose-only effect; inactive means no such curve, though single readings can be large or run the other way. The list shows a part of the results.", "data": [{"test": "Primary qHTS assay for Inhibitors of ovarian cancer metastasis using an organotypic tumor microenvironment (TME) model; further: nearly all actives have a fitted effect of over 65% in size;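 on activity change, negative = inhibition: plate controls were DMSO wells for no effect and tomatine positive control wells for full effect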.", "conditions": "SKOV3ip1-GFP adhesion/invasion on 3D omental model, fluorescence; series mostly up to 45.8 µM; activity change, negative = inhibition: at the top concentration", "method_in_brief": "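qHTS, 4-pt dose (0.36-46 umol/L); SKOV3ip1-GFP, 1,200 cells/well, no FBS; primary omental fibroblast/mesothelial co-culture 48 h pre-grown; 2 h RT + 16 h 37 C; PBS wash, 4% PFA; GFP count 488/509 nm.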", "values": [{"smiles": "O=C(O)c1ccc(CNCc2ccccc2Cl)s1", "activity change, negative = inhibition": "inactive: -18%"}, {"smiles": "Cc1cc(C)cc(NC(=O)CSc2oc(-c3ccco3)nc2S(=O)(=O)c2ccc(Cl)cc2)c1", "activity change, negative = inhibition": "inactive: -23.9%"}, {"smiles": "Cn1nc(C(=O)NCc2ccccc2Cl)c2c1-c1ccccc1S(=O)(=O)C2", "activity change, negative = inhibition": "inactive: 0.0933%"}, {"smiles": "COc1ccc(Cl)cc1NC(=O)C1CCN(S(=O)(=O)c2ccc3c(c2)CC(C)N3C(C)=O)CC1", "note": "(stereo unspecified)", "outcome": "inactive"}, {"smiles": "CSc1ccc(CNC(=O)C2CCN(c3nc4ccccc4nc3C(F)(F)F)CC2)cc1", "activity change, negative = inhibition": "inactive: 7.38%"}, {"smiles": "O=C(Nc1cc(Cl)ccc1Cl)c1cc2nc(-c3ccc4c(c3)OCO4)cc(C(F)(F)F)n2n1", "activity change, negative = inhibition": "inactive: 1.75%"}, {"smiles": "Cc1nnc(NC(=O)CSc2nccn2Cc2ccc(Cl)cc2)s1", "activity change, negative = inhibition": "inactive: 0.205%"}, {"smiles": "O=C(CSc1cn(CCNC(=O)c2c(F)cccc2F)c2ccccc12)Nc1ccc(F)cc1", "activity change, negative = inhibition": "inactive: 9.65%"}, {"smiles": "CCN(CC)CCNC(=O)c1cn(CCOC)c(=O)c2c1c1ccccc1n2C", "activity change, negative = inhibition": "inactive: -2.97%"}, {"smiles": "COc1ccc(CNCc2c(C(=O)O)c(C)n(Cc3ccccc3C)c2C)c(OC)c1", "outcome": "inactive"}, {"smiles": "COc1ccc(-n2ncc(C(=O)N3CCN(c4cc(C)ccc4C)CC3)c2C2CCN(C(=O)OC(C)(C)C)CC2)cc1", "activity change, negative = inhibition": "inactive: 11.7%"}, {"smiles": "Cc1ccc(Cl)cc1N1CCN(c2ncnc3c2nc2n3CCCCC2)CC1", "activity change, negative = inhibition": "inactive: -25.4%"}, {"smiles": "COc1ccc(Nc2cc(C)c3cc(NC(=O)Cc4ccc(Cl)cc4)ccc3n2)cc1", "activity change, negative = inhibition": "inactive: 4.95%"}, {"smiles": "CCN(CC)S(=O)(=O)c1cccc(C(=O)Nc2sc3c(c2C#N)CCC(C)C3)c1", "note": "(stereo unspecified)", "activity change, negative = inhibition": "inactive: 55.5%"}, {"smiles": "COc1ccc2c(c1)c1c(c(=O)n(-c3ccccc3C)c(=O)n1C)n2C", "activity change, negative = inhibition": "inactive: 3.06%"}, {"smiles": "Cc1cc(C)c(S(=O)(=O)N2CCC(N3CCN(Cc4ccccc4)C(=O)C3=O)CC2)c(C)c1", "activity change, negative = inhibition": "inactive: -1.04%"}, {"smiles": "O=C(Nc1ccc(F)c(Cl)c1)N1CCC2(CC1)Oc1ccccc1C(=O)N2Cc1ccccc1F", "activity change, negative = inhibition": "inactive: -12.2%"}, {"smiles": "COc1ccccc1N1CCN(C(CNC(=O)C(=O)NCc2ccc(F)cc2)c2cccnc2)CC1", "note": "(stereo unspecified)", "activity change, negative = inhibition": "inactive: 0.976%"}, {"smiles": "CCS(=O)(=O)c1ncc(Cl)c(C(=O)Nc2c(C(=O)Nc3cccc(C)c3)oc3ccccc23)n1", "activity change, negative = inhibition": "inactive: -8.46%"}, {"smiles": "Cc1ccc(-c2c(C(=O)N3CCN(c4cc(Cl)ccc4C)CC3)oc(=O)c3ccccc23)cc1", "activity change, negative = inhibition": "inactive: -25.4%"}, {"smiles": "COc1ccc(C)cc1NC(=O)c1cc2c(=O)n(Cc3cccnc3)ccc2nc1C", "activity change, negative = inhibition": "inactive: -5.93%"}, {"smiles": "Cc1nc2nc(NC(=O)CC(C)C)[nH]n2c(=O)c1Cc1ccccc1", "activity change, negative = inhibition": "inactive: 1.87%"}, {"smiles": "CCc1ccccc1NC(=O)Cc1ccc(NC(=O)N2CCCCc3ccccc32)cc1", "activity change, negative = inhibition": "inactive: 15%"}, {"smiles": "Cc1cccc(Cn2c(COc3ccc(Cl)cc3)nc3ccccc32)c1", "outcome": "inactive"}, {"smiles": "Cc1ccc(CCNC(=O)c2cc3n(n2)CCCN(Cc2ccc(C)cc2)C3=O)cc1", "activity change, negative = inhibition": "inactive: 5.35%"}, {"smiles": "CCc1nnc(SCC(=O)Nc2cc(OC)ccc2OC)nc1CC", "activity change, negative = inhibition": "inactive: -6.61%"}, {"smiles": "CCOc1ccc(S(=O)(=O)N(CC(=O)NCCSc2ccc(C)cc2)c2ccccc2)cc1", "activity change, negative = inhibition": "inactive: 15.2%"}, {"smiles": "O=C(Nc1sc2c(c1C(=O)Nc1cccc(Cl)c1)CCCC2)c1cccs1", "outcome": "inactive"}, {"smiles": "Cn1c(=O)c(=O)n(C)c2cc(N3CCCC3)c(NC(=O)c3ccccc3F)cc21", "activity change, negative = inhibition": "inactive: -1.1%"}, {"smiles": "Cc1ccc(NC(=O)CSc2nc(=O)n(Cc3ccco3)c3c2CCC3)cc1F", "activity change, negative = inhibition": "inactive: 7.64%"}, {"smiles": "CCCCn1cc(S(=O)(=O)c2ccc(C)c(C)c2)c(=O)c2cc(F)c(N(CC)CC)cc21", "activity change, negative = inhibition": "inactive: 8.16%"}, {"smiles": "COc1ccc(-c2nc(CN3CCC(C(=O)NCCc4ccccc4)CC3)c(C)o2)cc1OC", "activity change, negative = inhibition": "inactive: -1.42%"}, {"smiles": "CCC(=O)N1CCc2cc(CNC(=O)c3ccc(OC)cc3)ccc21", "activity change, negative = inhibition": "inactive: -6.63%"}, {"smiles": "CCn1nc(-c2ccccc2)c(-c2ccccc2)c(C(=O)Nc2nc(C)c(C(C)=O)s2)c1=O", "outcome": "inactive"}, {"smiles": "Cc1ccc(NC(=O)c2cc(S(=O)(=O)NC3CCCCC3)ccc2F)cc1Cl", "activity change, negative = inhibition": "inactive: -30.5%"}, {"smiles": "CCn1nnc2cc(C(=O)Nc3ccc(C)c(Cl)c3)ccc21", "activity change, negative = inhibition": "inactive: -2.41%"}, {"smiles": "CCOc1ccc(-c2nnc(SCC(=O)Nc3ccc(C)cc3Cl)o2)cc1", "activity change, negative = inhibition": "inactive: 6.49%"}, {"smiles": "CCC(=O)N1CCc2cc(CNC(=O)Cc3ccc(F)cc3)ccc21", "activity change, negative = inhibition": "inactive: -6.7%"}, {"smiles": "COC(=O)c1ccccc1NC(=O)c1cc(CN2CCCC2)on1", "activity change, negative = inhibition": "inactive: 1.93%"}, {"smiles": "Cc1ccc2c(c1)-c1onc(C(=O)N3CCN(c4cc(Cl)ccc4C)CC3)c1CO2", "outcome": "inactive"}, {"smiles": "Cc1nn(S(=O)(=O)c2ccc(C(C)(C)C)cc2)c(C)c1S(=O)(=O)N1CCC(C)CC1", "activity change, negative = inhibition": "inactive: -25%"}, {"smiles": "COc1ccc(CNC(=O)Cn2c(=O)ccc3cc(S(=O)(=O)N4CCCC4)ccc32)cc1", "outcome": "inactive"}, {"smiles": "CC(=O)c1ccc(N2CCN(S(=O)(=O)c3cc(-c4noc(C)n4)ccc3C)CC2)cc1", "outcome": "inactive"}, {"smiles": "Cc1ccc(Cn2c(CNC(=O)Cc3cccc(C)c3)nc3cccnc32)cc1", "activity change, negative = inhibition": "inactive: -12.9%"}, {"smiles": "CCOC(=O)c1c(NC(=O)COc2ccc(C)cc2C(C)(C)C)sc2c1CCC(C)C2", "note": "(stereo unspecified)", "outcome": "inactive"}, {"smiles": "COc1ccc(OC)c(CCNC(=O)c2cnn(-c3ccc(C)cc3C)c2C2CCN(C(=O)OC(C)(C)C)CC2)c1", "activity change, negative = inhibition": "inactive: 1.85%"}]}]}
